# Experimental data from article PMC4336329 (PLoS ONE, 2015).
# Out of some 310,000 compounds screened, about 2,200 (0.71%) showed an effect of 50% or more. The effect is printed as a negative number. The list shows a part of the results.
# Molecular target: human ether-à-go-go-related gene (hERG) potassium channel (human, UniProt Q12809)
# Assay: primary screen, population patch clamp on CHO cells stably expressing hERG
# human ether-à-go-go-related gene (hERG) potassium channel, sequence (Q12809 whole entry, looked up): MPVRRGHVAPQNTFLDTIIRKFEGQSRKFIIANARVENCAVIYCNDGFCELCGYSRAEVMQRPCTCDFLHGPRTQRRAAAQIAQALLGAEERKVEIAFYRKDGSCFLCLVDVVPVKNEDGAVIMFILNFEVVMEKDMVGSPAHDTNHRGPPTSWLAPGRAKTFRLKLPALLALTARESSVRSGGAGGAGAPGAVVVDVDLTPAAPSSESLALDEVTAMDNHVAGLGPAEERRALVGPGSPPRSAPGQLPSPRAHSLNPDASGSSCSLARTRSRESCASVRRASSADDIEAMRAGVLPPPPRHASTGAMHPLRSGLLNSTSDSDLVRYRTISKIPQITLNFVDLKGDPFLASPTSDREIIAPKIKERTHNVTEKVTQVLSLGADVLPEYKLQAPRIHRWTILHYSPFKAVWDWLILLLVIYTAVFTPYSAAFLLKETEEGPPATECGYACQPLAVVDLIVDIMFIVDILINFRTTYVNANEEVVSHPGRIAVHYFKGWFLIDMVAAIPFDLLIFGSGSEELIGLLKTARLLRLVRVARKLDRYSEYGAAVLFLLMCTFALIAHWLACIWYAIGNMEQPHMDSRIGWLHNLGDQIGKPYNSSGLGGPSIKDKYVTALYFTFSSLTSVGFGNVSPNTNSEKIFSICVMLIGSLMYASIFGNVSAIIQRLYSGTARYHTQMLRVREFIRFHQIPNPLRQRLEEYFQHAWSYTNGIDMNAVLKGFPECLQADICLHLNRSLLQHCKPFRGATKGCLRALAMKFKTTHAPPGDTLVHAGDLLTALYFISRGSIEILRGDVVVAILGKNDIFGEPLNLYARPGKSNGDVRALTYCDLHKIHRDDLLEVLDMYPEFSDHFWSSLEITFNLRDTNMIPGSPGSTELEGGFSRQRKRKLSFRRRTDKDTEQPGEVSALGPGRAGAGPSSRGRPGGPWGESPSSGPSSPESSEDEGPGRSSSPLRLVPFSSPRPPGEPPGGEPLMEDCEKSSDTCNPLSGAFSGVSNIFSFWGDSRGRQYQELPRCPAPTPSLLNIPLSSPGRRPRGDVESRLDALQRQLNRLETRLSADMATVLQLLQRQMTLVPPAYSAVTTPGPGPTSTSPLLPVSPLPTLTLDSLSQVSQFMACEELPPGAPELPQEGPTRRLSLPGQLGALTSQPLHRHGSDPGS
row,Compound,"hERG current change (%, negative = inhibition) at 1uM"
1,O=C(N/N=C1\C2CN3CCN(C2)CC1(c1ccccc1)C3)c1ccc(F)cc1,9.45%
2,COc1ccccc1N1CCN(CCCNc2cc(=O)n(C)c(=O)n2C)CC1.Cl,-1.06%
3,CCSc1oc(-c2cccs2)nc1S(=O)(=O)c1ccccc1,14.9%
4,CCCn1c(N)c(N(CCOC)C(=O)C2CCCC2)c(=O)[nH]c1=O,10.5%
5,CNC(=S)N1CCC(Cc2ccccc2)CC1,7.59%
6,COc1ccc(CN(C)C(=O)c2cccc(NS(=O)(=O)c3ccccc3)c2)c(OC)c1,8.52%
7,CC1c2ccccc2SC(CCCN(C)C)c2ccccc21.O=C(O)/C=C\C(=O)O (centres unmarked),7.95%
8,COc1ccc(S(=O)(=O)Nc2cccc(/C=C/C(=O)O)c2)cc1,14.9%
9,Cc1ccc(-c2cc(C(F)(F)F)n3ncc(C(=O)N4CCN(C)CC4)c3n2)cc1,0.779%
10,CCCC(CCC(=O)Nc1ccc(S(N)(=O)=O)cc1)C(=O)O (centres unmarked),12.4%
11,Cc1ccccc1OCC(=O)OCC(=O)NCc1cccs1,7.32%
12,C[C@@H](NC(=O)Cn1ccc(N)nc1=O)c1cccc2ccccc12,11.9%
13,Cc1cccc(C)c1NC(=S)N(Cc1ccccc1)Cc1cccnc1,16.2%
14,Cc1ccc(C2(C)NC(=O)N(CC(=O)N(C)CC(=O)Nc3cccc4ccccc34)C2=O)cc1 (centres unmarked),9.34%
15,CS(=O)(=O)Nc1cccc(C2=NN(C(=O)c3ccco3)C(c3cccs3)C2)c1 (centres unmarked),-13.4%
16,CC1=C([N+](=O)[O-])C(c2ccc(Cl)cc2)NC(=O)N1C (centres unmarked),1.93%
17,Cc1noc(C)c1COC(=O)c1ccc(-c2nc3ccccc3s2)s1,12.2%
18,COc1cc(C2NCCC(=O)C2(C)C)cc(OC)c1OC.Cl (centres unmarked),6.11%
19,CCOC(=O)Cc1csc(NC(=O)Nc2cccs2)n1,12%

row,Compound,"hERG current change (%, negative = inhibition) at 1uM"
1,O=C(Nc1ncc2c(n1)CC(c1cccc(Cl)c1)CC2=O)c1ccco1 (centres unmarked),-8.8%
2,COc1ccc(CNC(=O)Nc2cccc(C(F)(F)F)c2)cc1OC,6.69%
3,O=C(CSc1nnc2c(Cl)cc(Cl)cn12)N1CCN(c2ccc(F)cc2)CC1,-18.8%
4,Cn1c(-c2ccccc2Br)n[nH]c1=S,8.04%
5,NC(=O)Nc1ccc(C(=O)OCC(=O)Nc2ccc(Cl)cn2)cc1,12.4%
6,Cc1ccc(OCCn2c(=O)sc3ccccc32)cc1,6.93%
7,CC(C)Cn1c(CCC(=O)O)ccc1-c1cccs1,4.54%
8,COc1cc(NS(=O)(=O)c2ccc(N/C=C(\C=O)c3nc4cc(Cl)ccc4o3)cc2)nc(OC)n1,1.47%
9,CCOC(=O)c1ccc(CN2Cc3ccccc3C2=O)cc1,13%
10,N#CC1=C(N)Oc2c(c(=O)oc3ccccc23)C1c1ccc([N+](=O)[O-])o1 (centres unmarked),25.4%
11,CCCc1nn(C)c(C(=O)Nc2ccc(C)c(C)c2)c1Cl,-4.47%
12,CCCCn1c(N)c(N(CCC(C)C)C(=O)C2CSC3(C)CCC(=O)N23)c(=O)[nH]c1=O (centres unmarked),8.09%
13,Cc1ccc(CC(=O)Nc2ccc([N+](=O)[O-])cc2C)cc1,6.47%
14,COCC(C)n1c(C)cc(C(=O)COC(=O)c2c(NC(C)=O)sc(C)c2C)c1C (centres unmarked),2.97%
15,CS(=O)(=O)Nc1ccc(C2=NN(C(=O)c3cccc(F)c3)C(c3cccs3)C2)cc1 (centres unmarked),-7.01%
16,CCN1c2ccccc2-c2nc3ccccc3n2C1c1cccs1 (centres unmarked),4.28%
17,COc1ccc(-n2c(Cc3cccn3C)nnc2SCC(=O)Nc2cccc(NC(C)=O)c2)cc1,3.64%
18,CC(C)(C)c1ccc(OCc2ccc(C(=O)NN)o2)cc1,17.2%
19,CCOc1ccc(N2CC(C(=O)Nc3cccc(S(=O)(=O)N4CCCCC4)c3)CC2=O)cc1 (centres unmarked),11.4%

row,Compound,"hERG current change (%, negative = inhibition) at 1uM"
1,CCCc1[nH]nc2c1C1(C(=O)N(CC)c3ccccc31)C(C#N)=C(N)O2 (centres unmarked),0.976%
2,O=C1CC(c2cccs2)Cc2nc(NCC3CCCO3)ncc21 (centres unmarked),10.8%
3,N#Cc1ccsc1NC(=O)C1CCN(C(=O)c2ccc(Cl)cc2)CC1,-21.3%
4,Cc1ccc(COC(=O)c2nn(C)c(=O)c3ccccc23)cc1,3.84%
5,CCOc1ccc(N2CC(C(=O)N3CCN(c4ccccn4)CC3)CC2=O)cc1 (centres unmarked),-9.35%
6,O=C(CSc1cccc[n+]1[O-])c1cccs1,14.6%
7,COC(=O)C(Cc1ccc(O)cc1)NC(=O)CCOc1ccc(OC)cc1 (centres unmarked),11.8%
8,COc1ccc(-c2nc(C#N)c(N3CCN(C(=O)c4ccco4)CC3)o2)cc1OC,4.46%
9,Cc1cc(F)c(F)c(C(=O)N2CCCCC2C)c1Cl (centres unmarked),7.82%
10,Cc1cccc2c1nc(-c1ccccc1)n1nnnc21,8.83%
11,COc1ccc(S(=O)(=O)N(C)c2ccc(C(=O)NCc3ccccn3)cc2)cc1OC,13.2%
12,CC(C)(C)OC(=O)NCCCC[C@H](NC(=O)c1nc[nH]c1C(=O)NCc1ccc(CNC(=O)OC(C)(C)C)cc1)C(=O)OC(C)(C)C,-2.55%
13,Cc1ccc(-n2c(O)c(C=NCc3ccccn3)c3ccccc3c2=O)cc1C,8.66%
14,Cc1ccc(Cl)c(OCC(=O)NC2CCN(Cc3ccccc3)CC2)c1,-93.9%
15,Cn1ccnc1C(O)(c1ccccc1)c1nccn1C,10.5%
16,CCCCn1c(NCc2ccc(N(C)C)cc2)nc2ccccc21,-0.192%
17,Cc1ccc(-c2nn(-c3ccccc3)cc2/C=N/NC(=O)c2ccc(Br)o2)cc1,5.72%
18,Cc1ccc(N2C(=O)c3ccccc3NC2C(C)Cc2ccc3c(c2)OCO3)cc1 (centres unmarked),18.4%
